Source: the supplement of paper PMC4967469

Key:
Test in all cases: Viability of human cancer cell lines after 72 h of drug (GDSC screen)
JQ1 = compound: Cc1sc2c(c1C)C(c1ccc(Cl)cc1)=N[C@@H](CC(=O)OC(C)(C)C)c1nnc(C)n1-2 [JQ1]
Experimental: (§1)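 Human cancer cell lines in 384-well plates, medium with 10% serum, drug for 72 h over a 256-fold dose range (nine 2-fold or five 4-fold steps up to the top dose). Adherent lines were fixed and stained with the nucleic acid dye Syto60, suspension lines read with resazurin; signal relative to control wells, capped at 0 and 100%. One two-parameter sigmoid per drug and line, fitted in a mixed model over all curves with the slope shared within a line.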

JNK Inhibitor VIII = compound: CCOc1nc(NC(=O)Cc2cc(OC)ccc2OC)cc(N)c1C#N [JNK Inhibitor VIII]; conditions: top dose 10 µM; top dose inferred
Experimental: as §1

NSC-207895 = compound: CN1CCN(c2ccc([N+](=O)[O-])c3no[n+]([O-])c23)CC1 [NSC-207895]; conditions: top dose 20 µM; top dose inferred
Experimental: as §1

JNJ-26854165 = compound: c1ccc2c(CCNc3ccc(Nc4ccncc4)cc3)c[nH]c2c1 [JNJ-26854165]; conditions: top dose 10 µM
Experimental: as §1

Cyclopamine = compound: CC1=C2C[C@H]3[C@@H](CC=C4C[C@@H](O)CC[C@@]43C)[C@@H]2CC[C@]12O[C@@H]1C[C@H](C)CN[C@H]1[C@H]2C [Cyclopamine]; conditions: top dose 16 µM; top dose inferred
Experimental: as §1

AMG-706 = compound: CC1(C)CNc2cc(NC(=O)c3cccnc3NCc3ccncc3)ccc21 [AMG-706]; conditions: top dose 2 µM; top dose inferred
Experimental: as §1

Docetaxel = compound: CC(=O)O[C@@]12CO[C@@H]1C[C@H](O)[C@@]1(C)C(=O)[C@H](O)C3=C(C)[C@@H](OC(=O)[C@H](O)[C@@H](NC(=O)OC(C)(C)C)c4ccccc4)C[C@@](O)([C@@H](OC(=O)c4ccccc4)[C@H]21)C3(C)C [Docetaxel]; conditions: top dose 0.0125 µM
Experimental: as §1

CGP-60474 = compound: OCCCNc1cc(-c2ccnc(Nc3cccc(Cl)c3)n2)ccn1 [CGP-60474]; conditions: top dose 0.256 µM; top dose inferred
Experimental: as §1

OSI-906 = compound: C[C@]1(O)C[C@@H](c2nc(-c3ccc4ccc(-c5ccccc5)nc4c3)c3c(N)nccn32)C1 [OSI-906]; conditions: top dose 2.56 µM; top dose inferred
Experimental: as §1

YM155 = compound: COCC[n+]1c2c(n(Cc3cnccn3)c1C)C(=O)c1ccccc1C2=O [YM155]; conditions: top dose 5.12 µM
Experimental: as §1

FTI-277 = compound: COC(=O)[C@H](CCSC)NC(=O)c1ccc(NC[C@@H](N)CS)cc1-c1ccccc1 [FTI-277]; conditions: top dose 1.024 µM; top dose inferred
Experimental: as §1

SB-715992 = compound: Cc1ccc(C(=O)N(CCCN)[C@@H](c2nc3cc(Cl)ccc3c(=O)n2Cc2ccccc2)C(C)C)cc1 [SB-715992]; conditions: top dose 0.128 µM; top dose inferred
Experimental: as §1

Belinostat = compound: O=C(/C=C/c1cccc(S(=O)(=O)Nc2ccccc2)c1)NO [Belinostat]; conditions: top dose 20 µM; top dose inferred
Experimental: as §1

[1] = top dose 1 µM, screen: GDSC drug entry 1218, top dose inferred
[2] = top dose 2.56 µM, screen: GDSC drug entry 163

Cell Line	AUC (JQ1; [1])	IC50 (JQ1; [1])	AUC (JQ1; [2])	IC50 (JQ1; [2])	AUC (JNK Inhibitor VIII)	IC50 (JNK Inhibitor VIII)	AUC (NSC-207895)	IC50 (NSC-207895)	AUC (JNJ-26854165)	IC50 (JNJ-26854165)	AUC (Cyclopamine)	IC50 (Cyclopamine)	AUC (AMG-706)	IC50 (AMG-706)	AUC (Docetaxel)	IC50 (Docetaxel)	AUC (CGP-60474)	IC50 (CGP-60474)	AUC (OSI-906)	IC50 (OSI-906)	AUC (YM155)	IC50 (YM155)	AUC (FTI-277)	IC50 (FTI-277)	AUC (SB-715992)	IC50 (SB-715992)	AUC (Belinostat)	IC50 (Belinostat)
Becker (glioma, adherent)	0.975	> 1000 nM	0.865	> 2560 nM	0.984	> 10000 nM	0.971	> 20000 nM	0.815	6370 nM	0.962	> 16000 nM	0.982	> 2000 nM	0.646	2.09 nM	0.653	44.9 nM	0.982	> 2560 nM	0.861	> 5120 nM	0.983	> 1020 nM	0.627	18.7 nM		
DJM-1 (skin, adherent)			0.818	1430 nM	0.989	> 10000 nM	0.957	> 20000 nM	0.926	> 10000 nM	0.932	> 16000 nM	0.988	> 2000 nM	0.618	1.65 nM	0.782	106 nM	0.985	> 2560 nM			0.984	> 1020 nM	0.889	> 128 nM	0.988	> 20000 nM
DOHH-2 (B-cell lymphoma, suspension)			0.613	325 nM	0.977	> 10000 nM					0.786	6710 nM	0.981	> 2000 nM	0.793	5.55 nM	0.593	28.6 nM	0.985	> 2560 nM			0.979	> 1020 nM				
EB-3 (Burkitt lymphoma, suspension)	0.84	857 nM	0.863	> 2560 nM	0.983	> 10000 nM	0.841	17300 nM	0.978	> 10000 nM	0.903	> 16000 nM	0.978	> 2000 nM	0.984	> 12.5 nM	0.717	74 nM	0.983	> 2560 nM			0.964	> 1020 nM	0.894	> 128 nM	0.467	998 nM
GA-10 (Burkitt lymphoma, suspension)	0.765	312 nM	0.47	134 nM	0.991	> 10000 nM			0.909	> 10000 nM	0.89	13400 nM	0.991	> 2000 nM	0.885	10 nM	0.532	19.3 nM					0.991	> 1020 nM				
GAK (melanoma, adherent)	0.989	> 1000 nM	0.894	> 2560 nM			0.963	> 20000 nM	0.903	> 10000 nM	0.989	> 16000 nM			0.828	7.19 nM	0.853	185 nM	0.989	> 2560 nM	0.231	55.5 nM	0.975	> 1020 nM	0.977	> 128 nM	0.544	1640 nM
IM-9 (myeloma, suspension)	0.927	> 1000 nM	0.941	> 2560 nM	0.99	> 10000 nM			0.974	> 10000 nM	0.989	> 16000 nM	0.992	> 2000 nM	0.992	> 12.5 nM	0.984	> 256 nM	0.987	> 2560 nM			0.985	> 1020 nM				
KMS-12-BM (myeloma, suspension)							0.901	17900 nM	0.875	7000 nM	0.99	> 16000 nM			0.729	3.03 nM	0.792	94.3 nM	0.872	1740 nM	0.015	< 20 nM	0.99	> 1020 nM	0.711	27.8 nM	0.177	170 nM
MMAC-SF (melanoma, adherent)	0.985	> 1000 nM	0.831	1720 nM	0.947	> 10000 nM	0.864	18900 nM			0.987	> 16000 nM	0.985	> 2000 nM	0.836	8.83 nM	0.738	79.5 nM	0.901	> 2560 nM			0.985	> 1020 nM	0.956	> 128 nM	0.658	3510 nM
NCI-H69 (small cell lung carcinoma, suspension)	0.888	> 1000 nM	0.728	777 nM	0.983	> 10000 nM	0.959	> 20000 nM	0.977	> 10000 nM	0.94	> 16000 nM	0.985	> 2000 nM	0.911	> 12.5 nM	0.909	> 256 nM	0.983	> 2560 nM			0.976	> 1020 nM	0.635	19.8 nM		
NCI-H1581 (large cell lung carcinoma, semi-adherent)	0.98	> 1000 nM	0.972	> 2560 nM			0.956	> 20000 nM	0.898	> 10000 nM	0.984	> 16000 nM			0.716	3.02 nM	0.862	190 nM	0.989	> 2560 nM	0.023	< 20 nM	0.99	> 1020 nM	0.861	94.7 nM	0.304	372 nM

IC50 is the fitted dose that halves viability relative to control wells, and lower means more sensitive; a fit beyond the top or the lowest dose is shown as a bound at that dose. The AUC spans the tested range (256-fold, ending at the top dose) of the same fit; values near 1 show little effect. For part of these data: The top dose, if marked as inferred, was derived from the fitted curves, not read from the paper. For part of these data: Drugs with an entry number were screened twice under separate entries, and the two screens often disagree.
